The other results are listed elsewhere or left out.

The target of the experiment is T1, OsWOX13 (Oryza sativa, UniProt Q5QMM3 1-267).
T1 sequence: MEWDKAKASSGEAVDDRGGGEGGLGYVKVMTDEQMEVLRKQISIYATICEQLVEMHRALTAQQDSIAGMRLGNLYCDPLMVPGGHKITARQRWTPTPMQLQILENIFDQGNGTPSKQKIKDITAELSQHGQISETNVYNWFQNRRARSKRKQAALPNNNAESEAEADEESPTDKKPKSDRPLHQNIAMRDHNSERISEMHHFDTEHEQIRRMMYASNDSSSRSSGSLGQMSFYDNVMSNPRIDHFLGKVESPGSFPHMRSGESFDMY
As to the kind of experiment: protein-binding microarray (RPBM); PBS, 2% BSA, 51.3 ng/ul salmon testes DNA, 50 uM zinc acetate, 200 nM TF, 25 C, 1 h; high values mean tight binding. The settings on record: protein: recombinant; tags: N-terminal polyhistidine and DsRed monomer fusion (pET32a); label: CyDye5-dUTP incorporated in the synthesized complementary strand; 3' TTTTT single-stranded linker to array surface; dsDNA, one strand shown. The gist of the method:
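Binding signal is defined as the fluorescence intensity of each feature in arbitrary units, read on an Axon 4000B scanner. Transcription factors with N-terminal polyhistidine and DsRed fusions came from E. coli BL21-CodonPlus and were purified on Ni–NTA. They were incubated at 200 nM for 1 h at 25 °C on a custom Agilent array that had been made double-stranded with Cy5-dUTP, with 50 µM zinc acetate present, and the array was washed.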
As to “CCACAGTAAATTTATCTAAATATGCCCTAAAAGCCTACTTCGGAGTCACCTAGTGCAG”, the binding signal was 6940 fluorescence intensity (a.u.).
Turning to “AGAAAATTGGGATTAAAACTCCCAATTCATCGCTGCTCCCCGGAGTCACCTAGTGCAG”, the binding signal is 16500 fluorescence intensity (a.u.).
The figure for “CAAAATTTAAATTTTCAAATTTAATTTTGAAGTTGATTTCCGGAGTCACCTAGTGCAG” is 18100 fluorescence intensity (a.u.); for “TCCAAATTCAAAATTATGTGATGTCGTACTTAAGGAATGCCGGAGTCACCTAGTGCAG” it is 4510 fluorescence intensity (a.u.).
Then “AGTGTGATTGGAACTAGTTACACGATTTTGCTCTTAATCACGGAGTCACCTAGTGCAG”, with 39200 fluorescence intensity (a.u.).
As to “GTTATTGTCTAAAACGTTAATTAAAATAAAATTGAAGGGGCGGAGTCACCTAGTGCAG”, the binding signal is 8070 fluorescence intensity (a.u.).
The figure for “AATAACAGAACACATACAGGCATGAATCATTACAATAACACGGAGTCACCTAGTGCAG” is 3170 fluorescence intensity (a.u.); for “GAACGCGCGTGACTAATAATTAATTAACTTCCTATCACTTCGGAGTCACCTAGTGCAG” it is 10500 fluorescence intensity (a.u.); for “TTGTATACATGGATTGACTATTTAATCTTATCACAAGACACGGAGTCACCTAGTGCAG” it is 9510 fluorescence intensity (a.u.).
Then “CCAATCAAATTTACGAATTTACAATTGAAGCAAACTAACACGGAGTCACCTAGTGCAG”, with 4770 fluorescence intensity (a.u.).
Turning to “GTGGGGATTGGGTAGGAGAAGGAGTGGGGAATTAGGTTAGCGGAGTCACCTAGTGCAG”, the binding signal was 3880 fluorescence intensity (a.u.).
The figure for “TTGCTGATAGCTCATCATCAGTTTGATCGTGTCCGGAGGTCGGAGTCACCTAGTGCAG” is 14200 fluorescence intensity (a.u.); for “ACACGCCACTGTCTAATTGTCTATTATCCTTTGCATGCCCCGGAGTCACCTAGTGCAG” it is 6240 fluorescence intensity (a.u.); for “TTCATAATTTGCTTCTTAGCATGACCAGTAATGCTGTAGACGGAGTCACCTAGTGCAG” it is 9050 fluorescence intensity (a.u.).
Then “CATCAATCGTACTGTACAGATTGGGGTTGCTCAGTTTGTTCGGAGTCACCTAGTGCAG”, with 8890 fluorescence intensity (a.u.); and “TCATAATGGAATTGAAAGAGTTCGAGATCCTTCGAGGTCACGGAGTCACCTAGTGCAG”, with 16800 fluorescence intensity (a.u.).
Take “GTTATTACCAATTATTCGAAAACGGAGTGACTATATATCACGGAGTCACCTAGTGCAG”: the binding signal is 6060 fluorescence intensity (a.u.).
Then “CGTTTAACGTGTTAATAGAAAACGAGATAAACAGGGCACACGGAGTCACCTAGTGCAG”, with 4050 fluorescence intensity (a.u.); and “AGATGATTATATTCCTAACATCTGTATCATGCATGAAAATCGGAGTCACCTAGTGCAG”, with 11200 fluorescence intensity (a.u.); and “GAGACGAATCTTTTAATCCTAATTACACCATGATTTGACACGGAGTCACCTAGTGCAG”, with 6040 fluorescence intensity (a.u.).
“GTAAAGATTGAACCAAAGGAATGTTTCCAATAGGCTTTATCGGAGTCACCTAGTGCAG”: the binding signal is 5740 fluorescence intensity (a.u.).
Then “TATCAATGATGGCCATGATTATTCGGTCTAGGAAAAGAACCGGAGTCACCTAGTGCAG”, with 12900 fluorescence intensity (a.u.).
Then “CAAATGAGCTAATACTTAATTAATAATGCGCTAATGGATCCGGAGTCACCTAGTGCAG”, with 4340 fluorescence intensity (a.u.); and “CACTTAATTTGTTAATTAAATATATTTTCCAAACAAATTTCGGAGTCACCTAGTGCAG”, with 39100 fluorescence intensity (a.u.); and “AAATTAAACTGATTTTAATATTTAGGGTCAAGATATTTGGCGGAGTCACCTAGTGCAG”, with 40400 fluorescence intensity (a.u.).
On to “ATTTGCATGATTGGAGGCAGTGAGCTCTAGCCATCCATCTCGGAGTCACCTAGTGCAG”, for which the binding signal was 18900 fluorescence intensity (a.u.).
Take “TACTCGCGTCAATCATCGAGTCGCTCCGGCGCTTTACGATCGGAGTCACCTAGTGCAG”: the binding signal is 9460 fluorescence intensity (a.u.).
The figure for “ATGATAATTGTATGAATTACATCTTGTATTTGCTGAAAGTCGGAGTCACCTAGTGCAG” is 27600 fluorescence intensity (a.u.); for “GGGATTGAAGTGTAAAACAGAGGATTGCAAAACACAGGAACGGAGTCACCTAGTGCAG” it is 4020 fluorescence intensity (a.u.); for “GCCTAATTACACCATGATTTGACAATATGGTGCTACAGTACGGAGTCACCTAGTGCAG” it is 24200 fluorescence intensity (a.u.).
The figure for “ATTTGCAATTAATATTTTGCTGTTATCAACCCGGATAACTCGGAGTCACCTAGTGCAG” is 5620 fluorescence intensity (a.u.).
Then “ATTAATCCATCTCACTAATCAATTCATTTGCACCATAATACGGAGTCACCTAGTGCAG”, with 5200 fluorescence intensity (a.u.).
“TTTAACGGCGGTTGACTAACGGTTGACTAACGTCGATTGCCGGAGTCACCTAGTGCAG”: the binding signal was 5090 fluorescence intensity (a.u.).
As for “GAAAATAATTTAATATGGCAAAGAGTGATGGCCCACCACTCGGAGTCACCTAGTGCAG”, the binding signal was 9990 fluorescence intensity (a.u.).
The figure for “TTGTACAAATCATCAATATCTACAACTTTTGTTTTGGTCACGGAGTCACCTAGTGCAG” is 3470 fluorescence intensity (a.u.).
The figure for “TTTCGTCAATCTTGGTATCCATGGCCTCCAGTGCCAAAGTCGGAGTCACCTAGTGCAG” is 3400 fluorescence intensity (a.u.); for “ACCTAAATTTGTGGCACTAATAGGTTTTCGGGCCGGCCCACGGAGTCACCTAGTGCAG” it is 7240 fluorescence intensity (a.u.).
Then “GGGTGTGATTGGGATTAGGAAATGAATGAAGGGTTAAGATCGGAGTCACCTAGTGCAG”, with 36600 fluorescence intensity (a.u.); and “CCCCATCGTCACTTATAATTTATGAATAAAACTTTTAGATCGGAGTCACCTAGTGCAG”, with 4840 fluorescence intensity (a.u.); and “AATAATTGCATCAAATAATTCTAGTAAGTTAATGAATTTACGGAGTCACCTAGTGCAG”, with 15300 fluorescence intensity (a.u.).
Consider “TTTATTTAGTTTGTCAGACTAACTGGTATTGACACGACTGCGGAGTCACCTAGTGCAG”, for which the binding signal is 4140 fluorescence intensity (a.u.).
Take “CTTGATGTGTAGATTGAATGTGAACTTCATTTTCGGTAGACGGAGTCACCTAGTGCAG”: the binding signal is 32800 fluorescence intensity (a.u.).

The values are drawn from article PMC7819943, “Rice protein-binding microarrays: a tool to detect cis-acting elements near promoter regions in rice”.
